Test results taken from PubChem BioAssay AID1476 (National Center for Advancing Translational Sciences (NCATS), 2009).
About 4,500 (2.2%) of roughly 200,000 compounds were called active. This list was built around the results that the source calls inconclusive (neither active nor inactive); the mix of calls is not that of the screen. Calls come from the whole dose curve; as a rule, active = well fitted inhibition curve with a large enough effect; inconclusive = small, poorly fitted or top-dose-only effect, or effect the other way; inactive = flat fitted curve, though single readings scatter. A potency beside an inconclusive call is a rough fit, not a confirmed value.

What follows are compounds tested against Cruzipain (Trypanosoma cruzi) (UniProt P25779) (assay: qHTS Assay for Promiscuous and Specific Inhibitors of Cruzain (without detergent)). Details: purified cruzain, Z-FR-AMC fluorescence, no detergent.
Sequence of UniProt P25779 (P25779 whole entry, looked up): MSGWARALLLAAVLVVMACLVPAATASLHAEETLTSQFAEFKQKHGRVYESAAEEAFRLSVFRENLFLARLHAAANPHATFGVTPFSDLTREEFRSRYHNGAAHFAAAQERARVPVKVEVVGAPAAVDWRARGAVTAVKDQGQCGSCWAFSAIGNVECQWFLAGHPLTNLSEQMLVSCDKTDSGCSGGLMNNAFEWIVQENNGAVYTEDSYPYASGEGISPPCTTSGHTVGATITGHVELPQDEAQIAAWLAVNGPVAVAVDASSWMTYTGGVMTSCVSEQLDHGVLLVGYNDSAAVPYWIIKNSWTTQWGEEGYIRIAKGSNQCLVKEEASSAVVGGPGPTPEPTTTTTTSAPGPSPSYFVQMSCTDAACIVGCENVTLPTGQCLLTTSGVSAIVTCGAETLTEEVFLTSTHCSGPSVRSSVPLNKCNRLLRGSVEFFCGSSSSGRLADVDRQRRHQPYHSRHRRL
Summary of the method: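 Purified cruzain at 1.5 nM, pre-incubated 15 min with compound at room temperature in 100 mM sodium acetate pH 5.5, 5 mM DTT, 0.00005% Triton X-100. Reaction started with 2 uM Z-FR-AMC; AMC fluorescence increase over 60 s gives rate.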
Note: nearly all actives have a fitted effect of over 40% in size.
Potency is the fitted concentration of half-maximal effect; tags give direction and shape of the fitted curve.
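Throughout, for max response, negative = inhibition: plate controls were enzyme without inhibitor for no effect and buffer without enzyme for full effect.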

Row | SMILES | Potency | max response, negative = inhibition
1 | C/C(=C\C(=S)Nc1ccccc1)Nc1cccc2ccccc12 | inconclusive: 39.8 µM [inhibitor, single point] | –
2 | Cc1cc(C)cc(N(CC(=O)Nc2ccc(C(F)(F)F)cc2)S(=O)(=O)c2c(C)[nH]c(=O)[nH]c2=O)c1 | inconclusive: 31.6 µM [activator, single point] | –
3 | Cc1cc(N2CCC(C)CC2)nc2cccc(O)c12 | inconclusive: 39.8 µM [inhibitor, single point] | –
4 | CN(C1CCCCC1)S(=O)(=O)c1ccc(NC(=S)NC(=O)c2cccs2)cc1 | inconclusive: 39.8 µM [inhibitor, single point] | –
5 | CC(=O)Nc1ccc2[nH]c(C)c(CC=C(Cl)Cl)c(=O)c2c1 | inconclusive: 39.8 µM [activator, single point] | –
6 | O=C(CSc1ncc(S(=O)(=O)c2ccc(Br)cc2)c(=O)[nH]1)NCc1ccccc1Cl | inconclusive: 39.8 µM [activator, single point] | –
7 | CCN1CCN(C(c2ccc(Cl)cc2)c2c(O)cc(C)n(CCOC)c2=O)CC1 (stereo not drawn) | inconclusive: 39.8 µM [activator, single point] | –
8 | O=C(CSc1nc2ccccc2s1)NNC(=O)Nc1ccc(Cl)c(Cl)c1 | inconclusive: 39.8 µM [inhibitor, single point] | –
9 | COC(=O)c1ccc(C(=O)Nc2cc(Cl)ccc2Cl)cc1NC(=O)c1ccc(N(C)C)cc1 | active: 3.16 µM | –
10 | CC(=O)N1CCN(c2ccc(N=Cc3c(O)n(Cc4ccccc4)c(=O)[nH]c3=O)cc2)CC1 | inconclusive: 20 µM [activator, partial curve] | –
11 | CSC1=C(C#N)C(c2ccccc2Cl)C2=C(N1)c1ccccc1C2=O (stereo not drawn) | inconclusive: 39.8 µM [inhibitor, single point] | –
12 | O=C(Nc1ccc(Cn2cccn2)cc1)c1ccc(COc2cccc(Br)c2)cc1 | – | inactive: -13.2%
13 | CC(C)(C)c1ccc(C(=O)NC(=S)Nc2nc3c(s2)CCCC3)cc1 | inconclusive: 39.8 µM [inhibitor, single point] | –
14 | Cc1ccc(NC(=O)N2CCC(c3nc4c(nnn4Cc4c(F)cccc4Cl)c(=O)[nH]3)CC2)cc1 | inconclusive: 39.8 µM [activator, single point] | –
15 | COCCN1C=C(C(=O)OC)C(c2cc(Br)c(OC)c(OC)c2)C(C(=O)OC)=C1 | inconclusive: 31.6 µM [activator, partial curve] | –
16 | CC(/C=N/Nc1nncc(=O)[nH]1)=C\c1ccccc1 | inconclusive: 39.8 µM [inhibitor, single point] | –
17 | Cc1ccc2cc3c(NC(=O)C4CCCO4)nn(CC(C)C)c3nc2c1 (stereo not drawn) | inconclusive: 25.1 µM [activator, single point] | –
18 | CCOC(=O)C1CCCN(c2ncnc3c2cnn3-c2ccc(OC)cc2)C1 (stereo not drawn) | inconclusive: 25.1 µM [activator, single point] | –
19 | CNc1nc(OCC(F)(F)F)nc(N2CCOCC2)n1 | – | inactive: -2.94%
20 | CCOc1cc(/C=C2/C(=O)NC(=O)N(c3ccc(CC)cc3)C2=O)ccc1OC(=O)c1cccs1 | inconclusive: 39.8 µM [activator, single point] | –
21 | C=Cc1ccc(CSc2nc(-c3ccc(Cl)cc3)nc3c2Cc2c(CO)cnc(C)c2O3)cc1 | inconclusive: 25.1 µM [activator, single point] | –

Row | SMILES | Potency | max response, negative = inhibition
22 | Cn1c(Cl)c(C(=O)Nc2ccc(Cl)cc2)c2ccccc21 | inconclusive: 31.6 µM [inhibitor, single point] | –
23 | Cn1c(C(=O)N2CCN(c3ccc(Cl)cc3)CC2)cc2c(=O)[nH]c3ccccc3c21 | inconclusive: 25.1 µM [inhibitor, single point] | –
24 | CCN1C(=O)/C(=C/c2cc(C)n(C)c2C)SC1=Nc1ccc(OC)cc1 | inconclusive: 39.8 µM [activator, single point] | –
25 | COc1ccc(-c2cc(-n3c(C(F)(F)F)nc4ccccc43)n(CCC#N)n2)cc1 | inconclusive: 31.6 µM [activator, single point] | –
26 | COc1ccc(-n2c(=O)cnc3cnc(N(C)C)nc32)cc1 | – | inactive: -1.87%
27 | Cc1ccccc1-c1nc(NCc2cccs2)c2ccccc2n1 | inconclusive: 39.8 µM [inhibitor, single point] | –
28 | O=c1c(-c2ccc(F)cc2)nc2cnc(N3CCNCC3)nc2n1Cc1ccc(F)cc1 | – | inactive: 23.2%
29 | CCOc1cccc(NC(=O)CSc2ncc(-c3ccc(Cl)cc3)[nH]2)c1 | inconclusive: 39.8 µM [inhibitor, single point] | –
30 | Cc1oc(-c2ccc(C(=O)N(C)Cc3ccccc3)cc2)nc1CN1CCc2ccccc21 | – | inactive: 11.9%
31 | CCOC(=O)c1cccc(NC(=O)N2Cc3ccccc3Oc3ncccc32)c1 | – | inactive: 5.63%
32 | Cc1cccc(OC(C)C(=O)N2CCC(c3nc4ccccc4o3)CC2)c1C (stereo not drawn) | inconclusive: 39.8 µM [activator, single point] | –
33 | COCCCNC(=O)CNC(=S)N(Cc1ccccc1F)C1CCCCC1 | inconclusive: 39.8 µM [activator, single point] | –
34 | CCN1C(C(=O)c2ccccc2)=C(OC(=O)c2ccc(Cl)cc2)c2ccccc2S1(=O)=O | inconclusive: 31.6 µM [inhibitor, single point] | –
35 | CCc1nnc2c3ccccc3nc(Nc3ccc(F)cc3C)n12 | inconclusive: 39.8 µM [activator, single point] | –
36 | Cc1nc(N)sc1-c1csc(N(C)c2ccc(O)cc2)n1 | active: 5.01 µM | –
37 | Cc1ccc(S(=O)(=O)N2CC3(C)CN(S(=O)(=O)c4ccc(C)cc4)CC(C)(C2)C3O)cc1 (stereo not drawn) | inconclusive: 39.8 µM [inhibitor, single point] | –
38 | COc1cccc(CN2c3ccccc3-c3nc(SCC(=O)Nc4cccc(C)c4)ncc3S2(=O)=O)c1 | inconclusive: 39.8 µM [inhibitor, single point] | –
39 | COc1ccc(CCN2C(=O)c3[nH]nc(-c4ccccc4O)c3C2c2ccccc2)cc1 (stereo not drawn) | inconclusive: 31.6 µM [inhibitor, single point] | –
40 | O=C(CSc1nnc(NC(=O)c2ccccc2Cl)s1)Nc1ccc2c(c1)oc1ccccc12 | active: 3.98 µM | –
41 | CCc1ccccc1N(C)S(=O)(=O)c1ccc2c(c1)C(C)(C)C(=O)N2C | – | inactive: 25.5%
42 | CC1=C(C(=O)Nc2ccc(C)cc2C)C(c2cccc([N+](=O)[O-])c2)n2nc(C(=O)OC(C)C)nc2N1 (stereo not drawn) | inconclusive: 31.6 µM [inhibitor, single point] | –

Row | SMILES | Potency | max response, negative = inhibition
43 | CC(C)CC(C(=O)OCC(=O)c1c(N)n(C)c(=O)n(C)c1=O)N1C(=O)c2ccccc2C1=O (stereo not drawn) | inconclusive: 39.8 µM [activator, single point] | –
44 | Cc1cccc(-n2c(=O)cc(N3CCN(c4ccc(F)cc4)CC3)[nH]c2=O)c1 | inconclusive: 31.6 µM [inhibitor, single point] | –
45 | O=C1c2cccnc2C(Nc2ccc(S(=O)(=O)N3CCCCC3)cc2)N1Cc1ccccc1 (stereo not drawn) | inconclusive: 25.1 µM [activator, single point] | –
46 | O=C(CCCC(=O)N1CCN(c2ccccc2F)CC1)N1CCN(c2ccccc2F)CC1 | inconclusive: 39.8 µM [activator, single point] | –
47 | Nc1ccc(F)cc1F | – | inactive: -2.79%
48 | Cc1ccc(CCNC(=O)CN(C)S(=O)(=O)c2ccc3c(c2)c(=O)n(C)c(=O)n3C)cc1 | inconclusive: 39.8 µM [activator, single point] | –
49 | COc1ccc(C(=O)/C=C/C(=O)N(Cc2ccccc2OC)C(C(=O)NC2CCCCC2)c2ccncc2)c(O)c1 (stereo not drawn) | inconclusive: 39.8 µM [activator, single point] | –
50 | O=C(NCC1CCCO1)c1c(O)c2ccccc2[nH]c1=O (stereo not drawn) | inconclusive: 39.8 µM [inhibitor, single point] | –
51 | COc1ccc(-c2[nH]c(-c3ccc(SC)cc3)nc2SCC(=O)Nc2nccs2)cc1 | inconclusive: 25.1 µM [inhibitor, single point] | –
52 | Clc1ccc(/C=N/c2c(-c3ccco3)nc3ccccn23)cc1 | inconclusive: 39.8 µM [inhibitor, single point] | –
53 | COc1ccc(CCNC(=O)C2CCCN(S(=O)(=O)c3ccc4c(c3)oc(=O)n4C)C2)cc1OC (stereo not drawn) | – | inactive: -3.65%
54 | O=C(CNC(=O)c1cccc(F)c1)N/N=C/c1cc(Br)ccc1OCc1ccccc1 | inconclusive: 39.8 µM [inhibitor, single point] | –
55 | O=C1N=C(N2CCN(c3cccc4ccccc34)CC2)S/C1=C/c1cccs1 | active: 20 µM | –
56 | CCn1cc2nc(SCc3ccc(F)cc3)n(CCc3ccccc3)c(=O)c2n1 | inconclusive: 39.8 µM [activator, single point] | –
57 | COc1ccc(/C=N/NC(=O)CCn2c3ccccc3c3ccccc32)cc1O | inconclusive: 39.8 µM [activator, single point] | –
58 | COc1ccccc1-c1cc(C(=O)N2CCc3ccccc3C2)c2ccccc2n1 | inconclusive: 31.6 µM [inhibitor, single point] | –
59 | COc1cc(Cl)c(C)cc1NC(=O)c1cnn(-c2ccc(F)cc2F)c1C1CCN(C(=O)OC(C)(C)C)CC1 | – | inactive: -24.9%
60 | Cc1cccc2sc(NC(=O)c3cccc(S(=O)(=O)N4CCc5ccccc54)c3)nc12 | active: 10 µM | –
61 | COc1cccc2c(=O)c3c(cnn3C)n(C)c12 | inconclusive: 31.6 µM [activator, single point] | –
62 | CSc1nsc(/C=C/Nc2cccc(Cl)c2)c1C#N | active: 20 µM | –
63 | O=C(CSc1nnc(-c2cccc(F)c2)c(-c2cccc(F)c2)n1)NC1CCCCC1 | – | inactive: -9.1%
